Reference: PMC4336329 (PLoS ONE, 2015)
In all, about 310,000 compounds went through this assay and about 14,000 (4.5%) showed an effect of 50% or more. The effect is printed as a negative number. The list shows a part of the results.

target: human ether-à-go-go-related gene (hERG) potassium channel (human, UniProt Q12809); experiment: primary screen, population patch clamp on CHO cells stably expressing hERG
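Note: peak tail current of the secondary pulse compared with the same well before compound.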

Sequence of human ether-à-go-go-related gene (hERG) potassium channel (Q12809 whole entry, looked up): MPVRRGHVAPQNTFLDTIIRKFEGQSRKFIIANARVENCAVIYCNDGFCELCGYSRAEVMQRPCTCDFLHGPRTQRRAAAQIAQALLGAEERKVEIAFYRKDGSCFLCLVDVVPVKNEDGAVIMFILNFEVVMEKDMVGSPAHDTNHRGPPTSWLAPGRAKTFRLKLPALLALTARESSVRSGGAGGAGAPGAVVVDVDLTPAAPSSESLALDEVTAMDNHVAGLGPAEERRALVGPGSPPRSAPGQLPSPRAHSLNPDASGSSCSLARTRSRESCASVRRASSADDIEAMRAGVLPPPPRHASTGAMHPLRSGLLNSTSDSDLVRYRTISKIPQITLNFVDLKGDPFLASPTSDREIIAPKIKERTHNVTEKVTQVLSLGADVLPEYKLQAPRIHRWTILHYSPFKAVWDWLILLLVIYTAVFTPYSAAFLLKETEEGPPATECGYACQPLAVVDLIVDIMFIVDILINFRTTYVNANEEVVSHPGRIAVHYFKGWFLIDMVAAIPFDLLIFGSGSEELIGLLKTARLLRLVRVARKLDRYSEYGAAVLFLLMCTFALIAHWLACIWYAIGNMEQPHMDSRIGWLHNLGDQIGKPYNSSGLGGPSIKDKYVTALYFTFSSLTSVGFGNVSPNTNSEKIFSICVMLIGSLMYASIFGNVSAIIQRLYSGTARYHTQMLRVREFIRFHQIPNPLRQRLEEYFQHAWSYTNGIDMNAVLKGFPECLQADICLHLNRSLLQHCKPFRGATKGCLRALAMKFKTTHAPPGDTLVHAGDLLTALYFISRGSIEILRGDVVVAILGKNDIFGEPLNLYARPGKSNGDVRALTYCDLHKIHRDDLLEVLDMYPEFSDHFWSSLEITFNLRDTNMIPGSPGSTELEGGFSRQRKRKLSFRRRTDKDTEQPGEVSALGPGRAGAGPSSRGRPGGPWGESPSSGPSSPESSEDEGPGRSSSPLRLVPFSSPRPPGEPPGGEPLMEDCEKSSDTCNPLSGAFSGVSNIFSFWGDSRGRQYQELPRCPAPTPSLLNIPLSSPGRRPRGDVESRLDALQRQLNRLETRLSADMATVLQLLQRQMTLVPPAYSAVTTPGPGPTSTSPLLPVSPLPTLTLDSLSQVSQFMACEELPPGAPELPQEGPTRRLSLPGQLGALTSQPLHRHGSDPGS

Row | SMILES | hERG current change (%, negative = inhibition) at 10uM [%]
1 | CCN(CC)CCCN=C(C)c1c(O)n(-c2ccc(C)cc2)c(=O)[nH]c1=O | 15.1
2 | COC(=O)c1cccc([N+](=O)[O-])c1CN1CCCC(C(N)=O)C1 (stereo not drawn) | 18.4
3 | COc1ccc(CCc2[nH+]c(C)ccc2O)cc1.[Cl-] | 21.4
4 | Cn1c(=O)oc2cc(S(=O)(=O)Nc3cccc(F)c3)ccc21 | 6.89
5 | Cc1cccc(COCCN2CCN(S(=O)(=O)c3ccccc3)CCC2=O)c1 | -1.2
6 | COC(=O)[C@@]1(Cc2ccc(F)cc2)[C@H]2c3cc(C(=O)N(C)C)[nH]c3C[C@H]2CN1C(=O)c1ccccc1 | -27.9
7 | CCOC(=O)c1c(OCCO)nn(-c2ccccc2)c1N | 14.1
8 | CCc1ccc(NC(=O)CSc2nc3nc(C)cc(C)n3n2)cc1 | -9.14
9 | O=C(NCc1ccccc1)C(=O)NCC1COc2ccccc2O1 (stereo not drawn) | -4.02
10 | CCCCn1c(N)c(N(CC(C)C)C(=O)CN2C(=O)C3CCCCC3C2=O)c(=O)[nH]c1=O (stereo not drawn) | 2.81
11 | CCOc1ccc2ccccc2c1/C=N/NC(=O)c1ccncc1 | 0.0781
12 | Cc1cccc2c(N=O)c(O)[nH]c12 | 13.5
13 | CCN1C(=O)[C@H]2[C@@H](c3ccc(-c4ccccc4)c(OC)c3)N[C@@](Cc3ccccc3)(C(=O)OC)[C@H]2C1=O.O=C(O)C(F)(F)F | 5
14 | O=C(CSc1nnc(-c2ccc(Cl)cc2)n1-c1ccc(Cl)cc1)N/N=C/c1ccccc1C(=O)O | 8.64
15 | Cc1ccn2c(=O)nc(SCC(=O)OCc3ccccc3)nc2c1 | -15.4
16 | N#CCOc1nc(N2CCOCC2)nc(N2CCOCC2)n1 | 8.05
17 | O=C(N/N=C/c1cc(Br)cs1)C(O)c1ccccc1 (stereo not drawn) | 3
18 | Cc1cc(N2CCC(C)CC2)nc(-n2nc(C)cc2C)n1 | -30.3
19 | O=C(NCCS(=O)(=O)N1CCC2(CC1)OCCO2)c1ccccc1 | 5.06
20 | Cc1cc(N=Nc2ccccc2C)ccc1N | 7.14
21 | CCOC(=O)c1[nH]c2ccc(OC)cc2c1NC(=O)CN1CCN(c2ccccn2)CC1 | 0.208
22 | O=C(c1cccc(Cl)c1)N1CCC(c2nc3ccccc3[nH]2)CC1 | -38.2

Row | SMILES | hERG current change (%, negative = inhibition) at 10uM [%]
23 | CC(C)(C)C(=O)Nc1nc2ccc(S(C)(=O)=O)cc2s1 | 6.28
24 | NNC(=O)COc1ccc(F)cc1 | 9.33
25 | COc1ccc2cc3cc(C(=O)NCCc4ccc(OC)c(OC)c4)oc3nc2c1 | 6.54
26 | O=C1CC(c2cc(Br)ccc2F)c2cc3c(cc2N1)CCC3 (stereo not drawn) | -28.5
27 | NC(=O)c1ccc(N=Cc2ccc([N+](=O)[O-])s2)cc1 | 8.6
28 | CC1CC(N(C(=O)c2ccccc2Cl)c2ccccc2)c2ccccc2N1 (stereo not drawn) | 11.7
29 | COc1ccc(N2Cc3cccc(C(=O)N4CCN(C(=O)c5ccco5)CC4)c3C2=O)cc1 | -29.6
30 | COC(=O)c1ccccc1N=Nc1c(C)noc1C | 6.19
31 | C1=C(CCNc2ncnc3nc[nH]c23)CCCC1 | -3.59
32 | CN1C(=O)c2ccc(C(=O)Nc3ccccc3O)cc2C1=O | 4.6
33 | COc1ccc(CN2CCNC(=O)C2CC(=O)N(C)CC2CCOCC2)cc1OC (stereo not drawn) | 7.8
34 | COc1cc(C2N(Cc3ccccc3)CCN2Cc2ccccc2)ccc1OC(C)=O | 1.77
35 | Cc1ccc(-c2c(C)sc3ncn(CC(=O)N4CCOCC4)c(=O)c23)cc1C | -20.4
36 | O=C1/C(=C/c2cccs2)SC(=S)N1C1CCS(=O)(=O)C1 (stereo not drawn) | 2.16
37 | C/C(=C\C(=O)c1ccncc1)Nc1ccccc1O | -34.9
38 | CN(CC(=O)NC1CCCCC1)S(=O)(=O)c1ccc2c(c1)c(=O)n(C)c(=O)n2C | -7.6
39 | Cc1cc(N/N=C/c2ccccc2F)c2ccccc2n1 | 9.06
40 | CSc1ccc(S(=O)(=O)NCC(=O)OCC(=O)NCc2ccco2)cc1[N+](=O)[O-] | -61.7
41 | COc1ccc(C(=O)CSc2nc(C)cc(=O)[nH]2)cc1 | 16
42 | COc1ccc2c(c1)c(CC(=O)Nc1nnc(C3CC3)s1)c(C)n2C(=O)c1ccc(Cl)cc1 | 28.2
43 | CCN1CCN(C(=S)NC(C)c2ccccc2)CC1.O=C(O)C(=O)O (stereo not drawn) | 3.4
44 | COc1ccc(CN2C=C3C(=O)C(C)(OC(=O)CCc4ccccc4)C(=O)C=C3C=C2c2ccc(C#N)cc2)cc1 (stereo not drawn) | -31.7

Row | SMILES | hERG current change (%, negative = inhibition) at 10uM [%]
45 | CC(CC(=O)O)CC(=O)NNC(=O)c1cccc(Br)c1 (stereo not drawn) | 11.8
46 | CCCCC1CCC(C(=O)NCc2ccc3c(c2)OCO3)CC1 (stereo not drawn) | -9.78
47 | CCN(CC)C(=O)C(=O)c1ccn(-c2c(C)csc2C(=O)OC)c1 | -9.5
48 | N#Cc1ccc(Cn2c(-c3ccc(F)cc3)noc2=O)cc1 | -17.8
49 | O=C(CN1CCOCC1)Nc1ccc(Cl)c(Cl)c1.O=C(O)C(=O)O | 7.46
50 | Cc1cnc(NC(=O)c2ccc(OCC3CCCO3)cc2)s1 (stereo not drawn) | 17.5
51 | Cc1sc2ncnc(SCC(=O)N(C)C3CCS(=O)(=O)C3)c2c1C (stereo not drawn) | -21.8
52 | O=C(O)C1CCCN(S(=O)(=O)c2ccc(F)cc2)C1 (stereo not drawn) | 20.4
53 | CC[C@@H](C)[C@H](NC(=O)Cc1c(C)c2c(cc(C)c3c(C)c(C)oc32)oc1=O)C(=O)O | 7.76
54 | CCOC(=O)c1c(C)[nH]c(C)c1S(=O)(=O)N(C)CC(=O)Nc1ccccc1OC | -60
55 | Cc1ccc(/C(N)=N/OC(=O)Cc2ccccc2)cc1 | 19
56 | COc1ccc(C2C(C#N)=C(N)Oc3c2c(C)nn3-c2ccccc2)cc1Cn1nc(C)c([N+](=O)[O-])c1C (stereo not drawn) | -4.96
57 | COc1cccc(NC(=O)COC(=O)c2c(C)nn(-c3ccccc3)c2C)c1 | -7.46
58 | CC(C)C(NC(=O)c1ccccc1)c1nnc(SCC(=O)Nc2nccs2)n1C (stereo not drawn) | 12.8
59 | COc1cccc(N2C(=O)C(CC(=O)Nc3ccccc3)N(C3CCCCC3)C2=O)c1 (stereo not drawn) | -10.2
60 | COc1ccc(NC(=O)CN(C)C(=O)c2cn(-c3ccccc3)nc2-c2ccc(Cl)cc2)cc1 | 12.1
61 | COc1ccc(Cl)cc1S(=O)(=O)NC1CC(C)(C)NC(C)(C)C1 | 19.8
62 | O=P(O)(CP(=O)(c1ccccc1)c1ccccc1)c1ccccc1 | 10.6
63 | COc1ccc(OC)c(S(=O)(=O)Nc2ccccc2C(F)(F)F)c1 | -6.75
64 | CCOc1cc(C)c(Cl)cc1S(=O)(=O)n1nnc2ccccc21 | 6.52
65 | CC(=O)Nc1ccc(NC(=O)C2CCCN(c3nnc(-n4cccc4)s3)C2)cc1 (stereo not drawn) | 7.44
66 | Cn1c(=O)c2[nH]c(C3CCCC3)nc2n(C)c1=O | 7

Row | SMILES | hERG current change (%, negative = inhibition) at 10uM [%]
67 | O=C(CCN1CCN(Cc2ccccc2)CC1)NNC(=O)Nc1cccc(C(F)(F)F)c1 | -48.4
68 | CC(=O)c1cn(CC(=O)Nc2ccccc2F)c2ccccc12 | 2.54
69 | CC(C)CC(COCc1ccc(Cl)cc1)N1CCN(C(=O)c2ccc(Cl)cc2Cl)CCC1=O (stereo not drawn) | -11.8
70 | CCc1ccccc1-n1c(SCC(=O)N2CCCC2)nnc1-c1ccccn1 | -4.94
71 | C=CCN(Cc1ccc(OC)c(OC)c1)C(=O)N1CCOCC1 | -19.7
72 | COc1ccc(C(=O)O/N=C(\N)Cc2cccs2)cc1OC | 3.79
73 | Cc1c(N)cc(C(=O)N2CCOCC2)cc1[N+](=O)[O-] | 9.24
74 | COC(=O)c1c(C)oc2c1cc(NS(=O)(=O)c1cccs1)c1ccccc12 | -2.87
75 | COc1ccc(/C=C(\NC(=O)c2ccc(Cl)cc2)C(=O)NCCCn2ccnc2)cc1OC | 13.9
76 | COc1ccc(S(=O)(=O)N2CCC(C(=O)NCc3cccnc3)CC2)cc1OC | 16.1
77 | O=C(NCc1ccccc1)c1ccc(Cl)cc1 | 2.26
78 | CCCCNC(=O)c1onc(CSc2cccc(OCC)c2)c1C(=O)O | 13.1
79 | C=CCOC(=O)CC(NC(=O)c1ccccc1)c1ccccc1 (stereo not drawn) | -20.9
80 | CCS(=O)(=O)CCSc1nc2ccccc2o1 | 11
81 | Cc1ccc(-c2n[nH]c(=S)n2/N=C/C=C\c2ccccc2[N+](=O)[O-])cc1 | 11
82 | COc1ccccc1NC(=O)C(C)n1cnc2c(oc3nc4c(cc32)CCCC4)c1=O (stereo not drawn) | -6.89
83 | CCOc1ccccc1NC(=O)CCCN1C(=S)NC(C)(C)CC1C (stereo not drawn) | 6.95
84 | COc1cc(C(=O)Nc2ccc(C(=O)c3cccs3)cc2)cc(OC)c1OC | -10.1
85 | NS(=O)(=O)c1ccc(NC(=S)N2CCN(c3ccccc3)CC2)cc1 | 11.9
86 | CCOC(=O)c1c(-c2cccs2)csc1NC(=O)CC(C)C | 7.62
87 | CSc1ncccc1C(=O)Nc1ccc(S(=O)(=O)NC2=NCCCCC2)cc1 | 7.85
